Among all 48,000 compounds or so, about 550 (1.1%) were called active. Inconclusive results (about 4%) are left out. Rule as the data show it: active = potency below about 15 µM; inconclusive = mostly about 16 µM to 33 µM; inactive = weaker than that. The list shows a part of the results. Some results are limits rather than exact numbers.
Potency is read from the fitted curve at half-maximal effect.

Chain of UniProt P04062 (P04062 whole entry, looked up): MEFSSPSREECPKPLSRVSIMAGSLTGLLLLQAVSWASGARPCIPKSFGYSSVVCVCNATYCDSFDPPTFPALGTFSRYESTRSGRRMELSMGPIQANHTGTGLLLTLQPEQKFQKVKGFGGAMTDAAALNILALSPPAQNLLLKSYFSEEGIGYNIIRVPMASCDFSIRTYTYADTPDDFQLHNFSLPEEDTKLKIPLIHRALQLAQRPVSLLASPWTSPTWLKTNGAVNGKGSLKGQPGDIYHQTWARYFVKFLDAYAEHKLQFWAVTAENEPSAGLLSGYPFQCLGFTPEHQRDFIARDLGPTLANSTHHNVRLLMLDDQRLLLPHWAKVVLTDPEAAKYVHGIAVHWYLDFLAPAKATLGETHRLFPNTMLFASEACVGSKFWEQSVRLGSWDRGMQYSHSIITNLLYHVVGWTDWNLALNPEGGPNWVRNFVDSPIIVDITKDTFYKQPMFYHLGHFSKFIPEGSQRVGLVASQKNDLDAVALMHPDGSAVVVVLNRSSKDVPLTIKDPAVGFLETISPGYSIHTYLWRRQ

This test concerns the target Lysosomal acid glucosylceramidase (Homo sapiens) (UniProt P04062). Briefly: Glucocerebrosidase.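 Also: the screen sought inhibitors.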 The note with it: purified enzyme, resorufin glucoside fluorescence (screen aimed at inhibitors), 20 min. Summed up:
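Wild-type enzyme at 0.2 nM final in 50mM citric acid/KH2PO4, 10mM sodium taurocholate, 0.01% tween-20, pH 5.9, with resorufin beta-D-glucopyranoside at 30 uM final. Compounds titrated, 20 min at RT, red fluorescence read; AC50 from titration.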
Consider `Cc1cccc(CSc2nncc(=O)[nH]2)c1`, for which the Potency was inactive: > 76.9 µM.

On to `COc1ccc(C(=O)N2CCCN(C)CC2)cc1S(=O)(=O)N1CCCc2ccccc21`, for which the Potency was inactive: > 76.9 µM.

In the case of `O=C(NCc1cccs1)c1cccc(S(=O)(=O)N2CCCCC2)c1`, the Potency is inactive: > 76.9 µM.

Regarding `O=C(CCN1CCN(c2ccccc2F)CC1)Nc1ccc2c(c1)OCO2`, the Potency was inactive: > 76.9 µM.

On to `COC(=O)c1[nH]c2cc(C)ccc2c1NC(=O)CN1CCN(c2ccccc2OC)CC1`, for which the Potency is inactive: > 76.9 µM.

Take `COC(=O)Cc1csc(N)n1`: the Potency is inactive: > 76.9 µM.

For the compound `COC(=O)C1=C(CN2CCCc3ccccc32)NC(=O)NC1c1ccc(F)cc1` (stereo not drawn), the Potency was inactive: > 76.9 µM.

As to `CN(C)c1ccc(/C=C/c2ccncc2)cc1`, the Potency is inactive: > 76.9 µM.

For `Cc1cccc(N2C(=O)N(c3ccccc3C)C3CS(=O)(=O)CC32)c1` (stereo not drawn), the Potency was inactive: > 76.9 µM.

With `Cc1cc(=O)n2nc(N3CCC(C(=O)NCc4cccnc4)CC3)sc2n1`, the Potency was inactive: > 76.9 µM.

`O=c1oc2ccccc2c2c1ncn2C1CCCCC1`: the Potency is inactive: > 76.9 µM.

As for `O=C(CSc1ccccc1)Nc1cccnc1`, the Potency was inactive: > 76.9 µM.

On to `O=C(Cn1nnc2ccccc2c1=O)N1CCCc2ccccc21`, for which the Potency is inactive: > 76.9 µM.

As to `CC(OC(=O)C1CCN(S(=O)(=O)c2ccccc2)CC1)C(=O)Nc1ncc(Cl)cc1Cl` (stereo not drawn), the Potency was inactive: > 76.9 µM.

`O=C(c1ccco1)N1CCN(S(=O)(=O)c2ccc(Oc3ccccc3)cc2)CC1`: the Potency is inactive: > 76.9 µM.

For `COc1cc2c(cc1OC)C(=NCCC(=O)O)NC(C)(C)C2`, the Potency was inactive: > 76.9 µM.

As for `O=c1[nH]cnc2nc(-c3ccccc3)c(-c3ccccc3)nc12`, the Potency was inactive: > 76.9 µM.

For `COCc1nc2ccccc2n1Cc1ccc(Br)cc1`, the Potency was inactive: > 76.9 µM.

Turning to `Clc1cc(Cl)c2nc(N3CCOCC3)sc2c1`, the Potency is inactive: > 76.9 µM.

In the case of `CCOC(=O)CSc1nc2c(sc3ccccc32)c(=O)n1CCCN1CCOCC1`, the Potency result was “inactive”.

Take `Cc1cc(N2CCOCC2)nc(SCC(=O)c2ccc(Cl)cc2)n1`: the Potency was inactive: > 76.9 µM.

With `COc1ccc(NC(=O)N(C2CCCCC2)C(C)c2cccnc2)c(OC)c1` (stereo not drawn), the Potency was inactive: > 76.9 µM.

As to `Cc1onc(-c2ccccc2Cl)c1C(=O)N1CC(C)OC(C)C1` (stereo not drawn), the Potency was inactive: > 76.9 µM.

`CCCn1nnc(NC(=O)COc2ccccc2Cl)n1`: the Potency was inactive: > 76.9 µM.

For `CCCCSc1c(C)c2cc3c(cc2[nH]c1=O)OCO3`, the Potency was inactive: > 76.9 µM.

In the case of `CCC(=O)Nc1ccc(S(=O)(=O)Nc2cccc(C)c2)cc1OC`, the Potency was inactive: > 76.9 µM.

As to `COc1ccccc1S(=O)(=O)Cc1ccc(C(=O)NC(C)c2ccc3c(c2)OCCO3)o1` (stereo not drawn), the Potency was inactive: > 76.9 µM.

`COc1ccc(N2CCN(C(=O)CNC(=O)Cn3c(C)cc4ccccc4c3=O)CC2)cc1`: the Potency was inactive: > 76.9 µM.

With `Cc1ccc(-c2nc(C#N)c(NCc3cccc4c3OCO4)o2)cc1`, the Potency was inactive: > 76.9 µM.

For `O=C(C1CCC(=O)N1Cc1ccccc1Cl)N1CCN(c2ccc(F)cc2)CC1` (stereo not drawn), the Potency is inactive: > 76.9 µM.

For the compound `CCN(CC)c1ccc(NC(=O)c2ccccc2F)cc1`, the Potency is inactive: > 76.9 µM.

Consider `O=C(NCc1ccc(F)cc1)C1CCCN(S(=O)(=O)c2cccnc2)C1` (stereo not drawn), for which the Potency is inactive: > 76.9 µM.

As for `O=C1NC(c2cccnc2)C(C(=O)c2cccs2)C(O)(C(F)(F)F)N1` (stereo not drawn), the Potency is inactive: > 76.9 µM.

Turning to `Cc1onc(-c2ccccc2)c1C(=O)Nc1ccccc1N1CCOCC1`, the Potency is inactive: > 76.9 µM.

Take `O=C(Nc1ccc(F)cc1F)c1cccnc1`: the Potency was inactive: > 76.9 µM.

In the case of `COCCn1c(N)c(S(=O)(=O)c2cccs2)c2nc3ccccc3nc21`, the Potency was inactive: > 76.9 µM.

Turning to `CC1CN(C)C(C)CC1NCc1ccc2c(c1)OCO2` (stereo not drawn), the Potency is inactive: > 76.9 µM.

Consider `Cc1cc2nc(C(F)(F)F)[nH]c(=O)n2n1`, for which the Potency is inactive: > 76.9 µM.

With `CCOC(=O)c1sc2ncn(C(C)C(=O)OCC)c(=O)c2c1C` (stereo not drawn), the Potency was inactive: > 76.9 µM.

For `CN=c1scc(C)n1/N=C/c1ccc(O)cc1O`, the Potency was inactive: > 76.9 µM.

As for `COc1ccc(CCNC(=O)C2CCCN(S(=O)(=O)c3cccc4nonc34)C2)cc1OC` (stereo not drawn), the Potency is inactive: > 76.9 µM.

With `CCOc1cc(C(=O)Nc2ccc(S(=O)(=O)N3CCOCC3)cc2)cc(OCC)c1OCC`, the Potency was inactive: > 76.9 µM.

For `CS(=O)(=O)Nc1ccc(-c2n[nH]c(=S)n2-c2ccccc2)cc1`, the Potency is inactive: > 76.9 µM.

Turning to `COc1ccc(CNCCNC(=O)c2ccco2)c(OC)c1OC`, the Potency was inactive: > 76.9 µM.

As to `CCN(CC)S(=O)(=O)c1ccc(-c2nnco2)cc1`, the Potency was inactive: > 76.9 µM.

For `CC1(C)Cc2c(sc3c2c(=O)n(Cc2ccccc2)c2nncn32)CO1`, the Potency is inactive: > 76.9 µM.

For the compound `CCOC(=O)Nc1c(C(=O)OC)[nH]c2cc(OC)ccc12`, the Potency is inactive: > 76.9 µM.

For `COc1ccc(C)cc1S(=O)(=O)Nc1ccc(F)c(Cl)c1`, the Potency result was “inactive”.

Turning to `O/N=C1\CC(O)Cc2nonc21` (stereo not drawn), the Potency is inactive: > 76.9 µM.

As for `CCn1c(CNc2ccc(F)cc2)nnc1SCCN1CCCCC1`, the Potency was inactive: > 76.9 µM.

Regarding `COC(=O)N(C)c1nc2ccccc2s1`, the Potency was inactive: > 76.9 µM.

`Cc1ccc(CN2C(=O)CCC2C(=O)NCCN(CC(C)C)CC(C)C)cc1` (stereo not drawn): the Potency was inactive: > 76.9 µM.

`CCCOc1ccc(/C(O)=C2/C(=O)C(=O)N(CCCOC)C2c2cccnc2)cc1` (stereo not drawn): the Potency was inactive: > 76.9 µM.

Regarding `O=C(O)Cc1nc2nc3c(c(=O)n2[nH]1)CCCC3`, the Potency is inactive: > 76.9 µM.

Consider `Cn1cnnc1SCC(=O)NCc1cccc(C(F)(F)F)c1`, for which the Potency is inactive: > 76.9 µM.

Turning to `CN1C=CC2=C(C#N)C(N)C(C#N)(C#N)C(c3ccccc3)C2C1` (stereo not drawn), the Potency was inactive: > 76.9 µM.

Take `COC(=O)Cc1c(C)c2c(O)cc(C)cc2oc1=O`: the Potency was inactive: > 76.9 µM.

For `O=C(OCn1nnc2ccccc2c1=O)C1=COCCO1`, the Potency is inactive: > 76.9 µM.

For `O=C(CSc1nnc(CNC(=O)c2ccccc2F)o1)c1ccccc1`, the Potency is inactive: > 76.9 µM.

In the case of `CC1(NC(=O)C23CC4CC(CC(C4)C2)C3)CCS(=O)(=O)C1` (stereo not drawn), the Potency was inactive: > 76.9 µM.

As to `O=C(CCC(=O)c1cccs1)Nc1ccccc1F`, the Potency was inactive: > 76.9 µM.

For `O=C(COc1ccccc1Cl)NCc1ccco1`, the Potency was inactive: > 76.9 µM.

For `CCC(=O)N1CCc2cc(S(=O)(=O)CCC(=O)NCCC3=CCCCC3)ccc21`, the Potency was inactive: > 76.9 µM.

With `O=C1CC(c2ccccc2)n2nc(NC(=O)c3ccccn3)nc2N1` (stereo not drawn), the Potency is inactive: > 76.9 µM.

As to `Nc1nc(NCc2c(F)cccc2Cl)nn1-c1ccccc1`, the Potency was inactive: > 76.9 µM.

As to `CC(C)(C)C1CCc2onc(C(=O)NCc3ccc(F)cc3)c2C1` (stereo not drawn), the Potency is inactive: > 76.9 µM.

As for `c1coc(-c2nc3nc4ccccc4nc3n2CC2CCCO2)c1` (stereo not drawn), the Potency was inactive: > 76.9 µM.

For the compound `Cc1nc2ccc(F)cc2cc1C(=O)NCc1ccco1`, the Potency is inactive: > 76.9 µM.

In the case of `CS(=O)(=O)c1ccc(N2CCN(C3CC(=O)NC3=O)CC2)cc1` (stereo not drawn), the Potency is inactive: > 76.9 µM.

Take `CCn1c(SCc2nc3ccccc3s2)nc2cc(S(=O)(=O)N3CCOCC3)ccc21`: the Potency was inactive: > 76.9 µM.

`Cc1ccc(NC(=O)Cn2nnc(C(=O)Nc3ccc(C)c(C)c3)c2N)cc1`: the Potency is inactive: > 76.9 µM.

On to `CCOc1ccc(NS(=O)(=O)c2ccc3[nH]cc(C(=O)N(CC)CC)c(=O)c3c2)cc1`, for which the Potency is inactive: > 76.9 µM.

With `O=C(CSc1nnc(NC(=O)c2ccco2)s1)NC1CCCC1`, the Potency is inactive: > 76.9 µM.

On to `c1ccc(CSCc2cn3ccsc3n2)cc1`, for which the Potency was inactive: > 76.9 µM.

`COc1cc(C(=O)Nc2ccc3c(c2)OCCO3)c(-n2cnnn2)cc1OC`: the Potency is inactive: > 76.9 µM.

On to `CCN(CC)S(=O)(=O)c1ccc2nc(COC(=O)c3n[nH]c4ccccc34)[nH]c2c1`, for which the Potency is inactive: > 76.9 µM.

Take `O=c1cc(N2CCOCC2)[nH]c(=O)n1C1CCCCC1`: the Potency was inactive: > 76.9 µM.

In the case of `CCOC(=O)c1c(NC(=O)COc2ncnc3sccc23)sc2c1CCC2`, the Potency was inactive: > 76.9 µM.

As to `Cc1cc(Br)ccc1OCC(=O)N(Cc1nc(-c2ccccc2)no1)C(C)C`, the Potency was inactive: > 76.9 µM.

Consider `Cc1ccc(-n2c(Cc3cccn3C)nnc2SCC(=O)N2CCN(c3ccccc3)CC2)cc1`, for which the Potency is inactive: > 76.9 µM.

`O=C(O)c1cc(Nc2nc(N3CCOCC3)nc(N3CCOCC3)n2)ccc1Cl`: the Potency is inactive: > 76.9 µM.

As for `Cc1cc(N2CCOCC2)n2nc(-c3cccc(F)c3)cc2n1`, the Potency is inactive: > 76.9 µM.

As for `C=CCn1c(SCC(=O)c2ccccc2)nnc1-c1cc2ccccc2o1`, the Potency was inactive: > 76.9 µM.

With `CC(C(=O)NCCC1=CCCCC1)N1C(=O)c2ccccc2C1=O` (stereo not drawn), the Potency was inactive: > 76.9 µM.

In the case of `N#Cc1ccc(NC(=O)CN2C(=O)NC(Cc3ccccc3)C2=O)cc1` (stereo not drawn), the Potency is inactive: > 76.9 µM.

As for `CCCn1nnnc1SCC(=O)Nc1ccc(F)cc1`, the Potency is inactive: > 76.9 µM.

Turning to `CCC1(CC)C(=O)NC(=O)NC1=Nc1cccc(OC)c1`, the Potency was inactive: > 76.9 µM.

As to `Cc1ccc2c(NC(=O)C3CC3)cccc2n1`, the Potency is inactive: > 76.9 µM.

As to `Cc1cccc(N2CCN(C(c3cccs3)c3nnnn3C(C)(C)C)CC2)c1C` (stereo not drawn), the Potency was inactive: > 76.9 µM.

As for `Cc1nnc2sc(-c3ccc(NC(=O)c4ccc(-c5ccc(Br)cc5)o4)cc3)nn12`, the Potency is inactive: > 76.9 µM.

Take `O=C1CC(c2ccco2)Cc2nc(N3CCc4ccccc4C3)ncc21` (stereo not drawn): the Potency was inactive: > 76.9 µM.

On to `COc1ccc(C(=O)C(c2ccccc2)N2CCOCC2)cc1` (stereo not drawn), for which the Potency is inactive: > 76.9 µM.

As to `Cc1ccccc1CSCC(=O)NC(=O)NC(C)(C)C`, the Potency was inactive: > 76.9 µM.

(Values after PubChem BioAssay AID360 (National Center for Advancing Translational Sciences (NCATS), 2006).)
